In all, about 360,000 compounds went through this assay and about 16,000 (4.4%) were called active. The shares of active, inactive and inconclusive entries below differ from those in the screen. Calls come from the whole dose curve; as a rule, active = well fitted inhibition curve with a large enough effect; inconclusive = small, poorly fitted or top-dose-only effect; inactive = no such curve, though single readings can be large or run the other way. Where the call is inconclusive, the potency comes from a doubtful curve fit.
target: Bromodomain adjacent to zinc finger domain protein 2B (Homo sapiens) (UniProt Q9UIF8); assay: qHTS Assay for Inhibitors of BAZ2B; settings: AlphaScreen BAZ2B-H3K14Ac peptide displacement; series mostly up to 114 µM; note: nearly all actives have a fitted effect of over 60% in size
UniProt Q9UIF8, sequence (Q9UIF8 whole entry, looked up, the tested form may be a part): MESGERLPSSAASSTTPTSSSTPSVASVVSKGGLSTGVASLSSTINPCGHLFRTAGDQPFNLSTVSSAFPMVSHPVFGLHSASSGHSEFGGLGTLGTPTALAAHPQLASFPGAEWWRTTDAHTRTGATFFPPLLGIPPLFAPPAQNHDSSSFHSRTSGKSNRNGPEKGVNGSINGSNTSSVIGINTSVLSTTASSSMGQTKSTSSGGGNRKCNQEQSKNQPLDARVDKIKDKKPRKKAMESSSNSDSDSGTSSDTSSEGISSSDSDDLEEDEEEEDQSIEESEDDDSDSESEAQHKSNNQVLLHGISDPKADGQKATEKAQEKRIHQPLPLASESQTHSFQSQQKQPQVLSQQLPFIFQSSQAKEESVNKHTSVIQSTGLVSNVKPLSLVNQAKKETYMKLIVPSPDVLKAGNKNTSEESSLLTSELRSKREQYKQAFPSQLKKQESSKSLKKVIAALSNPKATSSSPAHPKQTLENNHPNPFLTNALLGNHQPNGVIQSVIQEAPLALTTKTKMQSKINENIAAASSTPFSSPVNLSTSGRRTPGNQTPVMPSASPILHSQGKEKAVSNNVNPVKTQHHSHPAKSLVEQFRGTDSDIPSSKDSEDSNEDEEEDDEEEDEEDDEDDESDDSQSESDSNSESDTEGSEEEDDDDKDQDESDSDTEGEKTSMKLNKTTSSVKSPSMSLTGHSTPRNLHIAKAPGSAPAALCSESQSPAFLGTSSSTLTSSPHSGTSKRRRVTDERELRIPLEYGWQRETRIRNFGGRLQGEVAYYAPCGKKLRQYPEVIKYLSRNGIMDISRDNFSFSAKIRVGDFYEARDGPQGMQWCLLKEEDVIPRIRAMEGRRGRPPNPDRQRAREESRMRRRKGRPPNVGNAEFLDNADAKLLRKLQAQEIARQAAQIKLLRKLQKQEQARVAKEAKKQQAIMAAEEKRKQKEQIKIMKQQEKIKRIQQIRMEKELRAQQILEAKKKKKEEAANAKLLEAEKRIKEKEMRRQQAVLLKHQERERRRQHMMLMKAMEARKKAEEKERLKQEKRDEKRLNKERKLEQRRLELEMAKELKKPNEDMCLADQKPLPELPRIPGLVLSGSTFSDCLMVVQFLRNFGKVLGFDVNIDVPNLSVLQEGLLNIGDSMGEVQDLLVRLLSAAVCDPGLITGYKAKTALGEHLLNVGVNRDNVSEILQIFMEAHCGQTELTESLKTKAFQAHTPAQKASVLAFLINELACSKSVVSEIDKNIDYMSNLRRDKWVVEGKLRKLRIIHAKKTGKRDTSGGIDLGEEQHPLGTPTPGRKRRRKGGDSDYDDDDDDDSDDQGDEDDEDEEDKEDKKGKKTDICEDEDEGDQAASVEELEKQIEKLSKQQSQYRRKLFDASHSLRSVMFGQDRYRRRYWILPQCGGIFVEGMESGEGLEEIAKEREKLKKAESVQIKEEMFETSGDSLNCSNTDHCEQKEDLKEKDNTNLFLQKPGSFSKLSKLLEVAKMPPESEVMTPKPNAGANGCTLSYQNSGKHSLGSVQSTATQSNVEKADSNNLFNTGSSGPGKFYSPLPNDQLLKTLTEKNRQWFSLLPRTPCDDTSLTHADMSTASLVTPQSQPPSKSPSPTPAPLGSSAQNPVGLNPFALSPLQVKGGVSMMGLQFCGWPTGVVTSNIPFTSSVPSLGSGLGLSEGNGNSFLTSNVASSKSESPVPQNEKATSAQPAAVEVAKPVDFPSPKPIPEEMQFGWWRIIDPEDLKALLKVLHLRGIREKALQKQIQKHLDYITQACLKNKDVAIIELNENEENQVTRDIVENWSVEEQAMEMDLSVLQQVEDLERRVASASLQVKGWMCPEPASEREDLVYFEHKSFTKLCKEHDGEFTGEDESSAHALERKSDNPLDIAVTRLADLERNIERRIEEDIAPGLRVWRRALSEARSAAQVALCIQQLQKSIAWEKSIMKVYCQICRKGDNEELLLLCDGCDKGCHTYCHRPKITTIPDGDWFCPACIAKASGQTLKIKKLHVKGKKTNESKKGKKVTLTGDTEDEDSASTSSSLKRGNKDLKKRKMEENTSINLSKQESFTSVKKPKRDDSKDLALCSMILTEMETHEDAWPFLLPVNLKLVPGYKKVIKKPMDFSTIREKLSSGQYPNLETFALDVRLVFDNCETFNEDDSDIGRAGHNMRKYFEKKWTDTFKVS
Procedure, shortened: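 AlphaScreen displacement of biotin-H3(5-23)K14Ac peptide (50 nM final) from BAZ2B (50 nM final) in PBS pH 7.4, 0.01% Tween-20; complex preformed 30 min RT, then compounds (top 110 uM) 30 min RT, beads 20 min dark.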
Potency is the fitted concentration of half-maximal effect; tags give direction and shape of the fitted curve.

| SMILES | Potency |
| --- | --- |
| CC(C)N(C(=O)COC(=O)c1cccc(N(C)C)c1)c1ccccc1 | inconclusive: 39.8 µM [inhibitor, partial curve] |
| O=S(=O)(O)c1cc(O)c2c(O)c(N=Nc3cc(Cl)ccc3O)c(S(=O)(=O)O)cc2c1 | active: 11.2 µM |
| CCC(=O)Nc1ccc2nc(SCCOc3cccc(C)c3)sc2c1 | inactive |
| CCCC(=O)N(Cc1cc2ccccc2[nH]c1=O)c1ccccc1OC | inconclusive: 11.2 µM [inhibitor, single point] |
| O=C(CSc1ccc(-c2ccco2)nn1)NC1CCCC1 | inactive |
| O=C(OCC(=O)c1ccc[nH]1)C1=COCCO1 | inconclusive: 89.1 µM [inhibitor, single point] |
| COc1ccccc1NC(=S)NCCSc1ccc(C)cc1 | inconclusive: 79.4 µM [inhibitor, single point] |
| COc1ccc(/C=C2\CN(Cc3ccccc3)C/C(=C\c3ccc(OC)c(O)c3)C2=O)cc1O | active: 39.8 µM |
| COc1ccc(OCCNC(=O)c2ccc(C)cc2)cc1 | inactive |
| O=C(CCC(=O)N1CCN(c2ccccc2F)CC1)c1ccc(F)cc1 | inactive |
| COCCCNCC(=O)Nc1ccc(OC(F)(F)F)cc1 | inconclusive: 89.1 µM [inhibitor, single point] |
| CC(C)Nc1nc(NC(N)=S)nc(NC(C)(C)C)n1 | inactive |
| COc1cccc(NC(=O)c2oc3ccccc3c2NC(=O)COc2ccccc2C)c1 | inactive |
| Cn1c(NCCCN2CCOCC2)nc2c1c(=O)n(Cc1ccc(Cl)cc1)c(=O)n2C | inconclusive: 70.8 µM [inhibitor, single point] |
| COc1ccc(OC)c(CN2CCC(C(=O)N3CCN(c4ccccc4F)CC3)CC2)c1 | inconclusive: 89.1 µM [inhibitor, single point] |
| COc1cc(/C=N/N2CCN(Cc3ccc(Cl)cc3)CC2)ccc1OC(C)=O | active: 56.2 µM |
| CN(C)/N=C/C=C1\CCC/C(=C/c2cccs2)C1=O | inconclusive: 7.94 µM [inhibitor, full curve] |
| CC(C)(c1ccccc1)c1ccc(OCCN2CCCC2)cc1 | inconclusive: 89.1 µM [inhibitor, single point] |
| COc1ccc(CCNC(=O)Cc2cc(OCc3ccccc3)c(OC)cc2[N+](=O)[O-])cc1OC | inactive |
| O=C(CSc1nc2ccccc2c(=O)n1Cc1ccco1)NCc1ccco1 | inconclusive: 79.4 µM [inhibitor, single point] |
| CC(C)CN(C(=O)COC(=O)c1cc2c(s1)CCC2)C1CCS(=O)(=O)C1 (configuration not stated) | active: 56.2 µM |
| COc1cccc(CN(C)C(=O)c2[nH]c(C)c(C(C)=O)c2C)c1OC | inconclusive: 79.4 µM [inhibitor, single point] |

Reference: PubChem BioAssay AID504333 (National Center for Advancing Translational Sciences (NCATS), 2011)
